{"source": "paper PMC12820563", "about": "“FoxP3 forms a head-to-head dimer in vivo and stabilizes its multimerization on adjacent microsatellites”", "note": "The list shows a part of the results."}
{"biological_target": "T1, MBP-FoxP1dN (Mus musculus, UniProt P58462 326-579)", "T1 sequence": "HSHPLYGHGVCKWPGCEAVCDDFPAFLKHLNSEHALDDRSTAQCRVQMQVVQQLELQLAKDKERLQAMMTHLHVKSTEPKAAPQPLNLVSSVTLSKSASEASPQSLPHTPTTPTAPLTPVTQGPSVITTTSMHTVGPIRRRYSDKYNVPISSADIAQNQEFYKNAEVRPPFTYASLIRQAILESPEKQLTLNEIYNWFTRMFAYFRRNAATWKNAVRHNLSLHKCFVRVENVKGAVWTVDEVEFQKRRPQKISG", "assay": "PD-seq (MBP pull-down with sequencing); 20 mM Tris-HCl pH 7.5, 100 mM NaCl, 1.5 mM MgCl2, 0.4 uM protein, 0.1 uM dsDNA library, 30 min, room temperature, amylose pull-down; high values mean tight binding", "conditions": "protein: recombinant; tags: His6-MBP; chain copies: 2; dsDNA, one strand shown", "in_short": "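Binding is given as reads-per-million enrichment, pull-down over input, with replicates pooled. The bait was an N-terminus-lacking mouse FoxP3 or FoxP1 fragment with a His6-MBP tag, expressed in E. coli and used at 0.4 µM with 0.1 µM Klenow-filled degenerate double-stranded DNA library for 30 min at room temperature in Tris pH 7.5 buffer with NaCl and MgCl2. Amylose resin pull-down with three washes was followed by proteinase K release, PCR barcoding and Illumina sequencing.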"}
{"sequence": "GATGATTGTTCTCCCAGCTGATGAATTCTACCCATCGAGTAAACAAATTTTCCTAATCTTTCTGTTCAAGCGCCATCTAC", "binding signal": "0.851 RPM ratio (pull-down/input)"}
{"sequence": "GATGATTGTTCTCCCAGCTGATGAATTTTACTTCTCGAGTAAACAAATTTTCCTAATCTTTCTGTTCAAGCGCCATCTAC", "binding signal": "0.828 RPM ratio (pull-down/input)"}
{"sequence": "GATGATTGTTCTCCCAGCTGATGAATTAGATGCCTCGAGTAAACAAATTTTCCTAATCTTTCTGTTCAAGCGCCATCTAC", "binding signal": "1.21 RPM ratio (pull-down/input)"}
{"sequence": "GATGATTGTTCTCCCAGCTGATGAATTGCGCATGTCGAGTAAACAAATTTTCCTAATCTTTCTGTTCAAGCGCCATCTAC", "binding signal": "1.1 RPM ratio (pull-down/input)"}
{"sequence": "GATGATTGTTCTCCCAGCTGATGAATTGCGGAGTTCGAGTAAACAAATTTTCCTAATCTTTCTGTTCAAGCGCCATCTAC", "binding signal": "0.951 RPM ratio (pull-down/input)"}
{"sequence": "GATGATTGTTCTCCCAGCTGATGAATTCTCTCAATCGAGTAAACAAATTTTCCTAATCTTTCTGTTCAAGCGCCATCTAC", "binding signal": "0.964 RPM ratio (pull-down/input)"}
{"sequence": "GATGATTGTTCTCCCAGCTGATGAATTACAGAAGTCGAGTAAACAAATTTTCCTAATCTTTCTGTTCAAGCGCCATCTAC", "binding signal": "1.05 RPM ratio (pull-down/input)"}
{"sequence": "GATGATTGTTCTCCCAGCTGATGAATTGTGGCTGTCGAGTAAACAAATTTTCCTAATCTTTCTGTTCAAGCGCCATCTAC", "binding signal": "1.03 RPM ratio (pull-down/input)"}
{"sequence": "GATGATTGTTCTCCCAGCTGATGAATTCGTGGATTCGAGTAAACAAATTTTCCTAATCTTTCTGTTCAAGCGCCATCTAC", "binding signal": "0.795 RPM ratio (pull-down/input)"}
{"sequence": "GATGATTGTTCTCCCAGCTGATGAATTCAATAGGTCGAGTAAACAAATTTTCCTAATCTTTCTGTTCAAGCGCCATCTAC", "binding signal": "0.938 RPM ratio (pull-down/input)"}
{"sequence": "GATGATTGTTCTCCCAGCTGATGAATTAGGCAACTCGAGTAAACAAATTTTCCTAATCTTTCTGTTCAAGCGCCATCTAC", "binding signal": "1.02 RPM ratio (pull-down/input)"}
{"sequence": "GATGATTGTTCTCCCAGCTGATGAATTTATGGAGTCGAGTAAACAAATTTTCCTAATCTTTCTGTTCAAGCGCCATCTAC", "binding signal": "1.01 RPM ratio (pull-down/input)"}
{"sequence": "GATGATTGTTCTCCCAGCTGATGAATTGCAGGGTTCGAGTAAACAAATTTTCCTAATCTTTCTGTTCAAGCGCCATCTAC", "binding signal": "0.958 RPM ratio (pull-down/input)"}
{"sequence": "GATGATTGTTCTCCCAGCTGATGAATTATGAGACTCGAGTAAACAAATTTTCCTAATCTTTCTGTTCAAGCGCCATCTAC", "binding signal": "0.918 RPM ratio (pull-down/input)"}
{"sequence": "GATGATTGTTCTCCCAGCTGATGAATTAACTAAGTCGAGTAAACAAATTTTCCTAATCTTTCTGTTCAAGCGCCATCTAC", "binding signal": "0.827 RPM ratio (pull-down/input)"}
{"sequence": "GATGATTGTTCTCCCAGCTGATGAATTGGTAGCCTCGAGTAAACAAATTTTCCTAATCTTTCTGTTCAAGCGCCATCTAC", "binding signal": "0.922 RPM ratio (pull-down/input)"}
{"sequence": "GATGATTGTTCTCCCAGCTGATGAATTACGCAACTCGAGTAAACAAATTTTCCTAATCTTTCTGTTCAAGCGCCATCTAC", "binding signal": "1.09 RPM ratio (pull-down/input)"}
{"sequence": "GATGATTGTTCTCCCAGCTGATGAATTATGCTTGTCGAGTAAACAAATTTTCCTAATCTTTCTGTTCAAGCGCCATCTAC", "binding signal": "1.28 RPM ratio (pull-down/input)"}
{"sequence": "GATGATTGTTCTCCCAGCTGATGAATTTTAGCTTTCGAGTAAACAAATTTTCCTAATCTTTCTGTTCAAGCGCCATCTAC", "binding signal": "1.07 RPM ratio (pull-down/input)"}
{"sequence": "GATGATTGTTCTCCCAGCTGATGAATTCACCTCTTCGAGTAAACAAATTTTCCTAATCTTTCTGTTCAAGCGCCATCTAC", "binding signal": "0.858 RPM ratio (pull-down/input)"}
{"sequence": "GATGATTGTTCTCCCAGCTGATGAATTCACCACGTCGAGTAAACAAATTTTCCTAATCTTTCTGTTCAAGCGCCATCTAC", "binding signal": "0.911 RPM ratio (pull-down/input)"}
{"sequence": "GATGATTGTTCTCCCAGCTGATGAATTAGACCGTTCGAGTAAACAAATTTTCCTAATCTTTCTGTTCAAGCGCCATCTAC", "binding signal": "0.892 RPM ratio (pull-down/input)"}
{"sequence": "GATGATTGTTCTCCCAGCTGATGAATTGGGTATTTCGAGTAAACAAATTTTCCTAATCTTTCTGTTCAAGCGCCATCTAC", "binding signal": "0.949 RPM ratio (pull-down/input)"}
{"sequence": "GATGATTGTTCTCCCAGCTGATGAATTTACACCCTCGAGTAAACAAATTTTCCTAATCTTTCTGTTCAAGCGCCATCTAC", "binding signal": "1.18 RPM ratio (pull-down/input)"}
{"sequence": "GATGATTGTTCTCCCAGCTGATGAATTGGTCCTTTCGAGTAAACAAATTTTCCTAATCTTTCTGTTCAAGCGCCATCTAC", "binding signal": "0.906 RPM ratio (pull-down/input)"}
{"sequence": "GATGATTGTTCTCCCAGCTGATGAATTTATGCTGTCGAGTAAACAAATTTTCCTAATCTTTCTGTTCAAGCGCCATCTAC", "binding signal": "1.43 RPM ratio (pull-down/input)"}
{"sequence": "GATGATTGTTCTCCCAGCTGATGAATTGTGCAGTTCGAGTAAACAAATTTTCCTAATCTTTCTGTTCAAGCGCCATCTAC", "binding signal": "1.1 RPM ratio (pull-down/input)"}
{"sequence": "GATGATTGTTCTCCCAGCTGATGAATTCCAGTGATCGAGTAAACAAATTTTCCTAATCTTTCTGTTCAAGCGCCATCTAC", "binding signal": "0.853 RPM ratio (pull-down/input)"}
{"sequence": "GATGATTGTTCTCCCAGCTGATGAATTGGCGGTTTCGAGTAAACAAATTTTCCTAATCTTTCTGTTCAAGCGCCATCTAC", "binding signal": "0.86 RPM ratio (pull-down/input)"}
{"sequence": "GATGATTGTTCTCCCAGCTGATGAATTGTTTACATCGAGTAAACAAATTTTCCTAATCTTTCTGTTCAAGCGCCATCTAC", "binding signal": "2.91 RPM ratio (pull-down/input)"}
{"sequence": "GATGATTGTTCTCCCAGCTGATGAATTGTCAAAGTCGAGTAAACAAATTTTCCTAATCTTTCTGTTCAAGCGCCATCTAC", "binding signal": "0.979 RPM ratio (pull-down/input)"}
{"sequence": "GATGATTGTTCTCCCAGCTGATGAATTGAAGGGATCGAGTAAACAAATTTTCCTAATCTTTCTGTTCAAGCGCCATCTAC", "binding signal": "0.798 RPM ratio (pull-down/input)"}
{"sequence": "GATGATTGTTCTCCCAGCTGATGAATTCTACGGCTCGAGTAAACAAATTTTCCTAATCTTTCTGTTCAAGCGCCATCTAC", "binding signal": "0.774 RPM ratio (pull-down/input)"}
{"sequence": "GATGATTGTTCTCCCAGCTGATGAATTGCTCTTGTCGAGTAAACAAATTTTCCTAATCTTTCTGTTCAAGCGCCATCTAC", "binding signal": "1.06 RPM ratio (pull-down/input)"}
{"sequence": "GATGATTGTTCTCCCAGCTGATGAATTGGATAAGTCGAGTAAACAAATTTTCCTAATCTTTCTGTTCAAGCGCCATCTAC", "binding signal": "0.947 RPM ratio (pull-down/input)"}
{"sequence": "GATGATTGTTCTCCCAGCTGATGAATTACTTGTATCGAGTAAACAAATTTTCCTAATCTTTCTGTTCAAGCGCCATCTAC", "binding signal": "1.41 RPM ratio (pull-down/input)"}
{"sequence": "GATGATTGTTCTCCCAGCTGATGAATTGGCGGCCTCGAGTAAACAAATTTTCCTAATCTTTCTGTTCAAGCGCCATCTAC", "binding signal": "0.813 RPM ratio (pull-down/input)"}
{"sequence": "GATGATTGTTCTCCCAGCTGATGAATTTTTAGCGTCGAGTAAACAAATTTTCCTAATCTTTCTGTTCAAGCGCCATCTAC", "binding signal": "0.95 RPM ratio (pull-down/input)"}
{"sequence": "GATGATTGTTCTCCCAGCTGATGAATTTTTTTAGTCGAGTAAACAAATTTTCCTAATCTTTCTGTTCAAGCGCCATCTAC", "binding signal": "1.05 RPM ratio (pull-down/input)"}
{"sequence": "GATGATTGTTCTCCCAGCTGATGAATTGCAGTCGTCGAGTAAACAAATTTTCCTAATCTTTCTGTTCAAGCGCCATCTAC", "binding signal": "1.02 RPM ratio (pull-down/input)"}
